Data reported in PubChem BioAssay AID488969 (Vanderbilt High Throughput Screening Facility, 2010).
Whole data set: some 110,000 compounds, median “z-score” near -0.1, cut for the highest 2% near 2. The list shows a part of the results. Residues, ends and D or L forms follow the SMILES beside them. *: point of attachment. Boc = CC(C)(C)OC(=O)*

Each compound was assayed against Metabotropic glutamate receptor 8 (Rattus norvegicus) (UniProt P70579) (assay: rat mGluR8 modulators via GIRK flux, primary screen, cell-based, thallium flux, HTS (AID 488969)). Settings: HEK293 rat mGluR8, GIRK (G protein-gated inwardly rectifying potassium channel) thallium flux, FluoZin2; at 10 µM; stronger effect = higher value; submaximal glutamate (EC20) added with thallium.
Sequence of UniProt P70579 (P70579 whole entry, looked up): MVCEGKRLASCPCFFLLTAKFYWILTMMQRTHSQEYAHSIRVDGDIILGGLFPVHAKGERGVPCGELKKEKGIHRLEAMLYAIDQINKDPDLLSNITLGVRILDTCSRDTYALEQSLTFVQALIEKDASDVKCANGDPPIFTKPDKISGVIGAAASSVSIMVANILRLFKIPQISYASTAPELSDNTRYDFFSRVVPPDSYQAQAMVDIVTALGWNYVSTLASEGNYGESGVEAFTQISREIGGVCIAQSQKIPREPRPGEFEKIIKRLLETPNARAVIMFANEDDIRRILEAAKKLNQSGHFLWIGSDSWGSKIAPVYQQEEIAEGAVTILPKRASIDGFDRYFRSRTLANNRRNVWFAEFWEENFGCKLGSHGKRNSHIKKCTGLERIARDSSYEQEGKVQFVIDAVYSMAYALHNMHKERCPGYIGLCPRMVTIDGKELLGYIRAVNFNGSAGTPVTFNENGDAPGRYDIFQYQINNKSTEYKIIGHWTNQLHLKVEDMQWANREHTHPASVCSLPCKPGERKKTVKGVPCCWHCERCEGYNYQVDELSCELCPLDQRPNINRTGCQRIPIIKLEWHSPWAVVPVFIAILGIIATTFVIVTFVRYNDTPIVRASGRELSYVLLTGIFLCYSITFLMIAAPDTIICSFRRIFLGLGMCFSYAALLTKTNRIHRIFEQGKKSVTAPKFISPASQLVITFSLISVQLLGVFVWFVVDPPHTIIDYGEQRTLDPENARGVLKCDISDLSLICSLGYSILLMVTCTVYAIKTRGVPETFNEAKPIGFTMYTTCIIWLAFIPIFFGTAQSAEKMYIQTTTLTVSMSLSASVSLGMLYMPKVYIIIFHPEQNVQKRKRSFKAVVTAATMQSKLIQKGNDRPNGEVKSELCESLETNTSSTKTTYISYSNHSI

SMILES	z-score
CCOc1ccc(-n2c(N)c(C(=O)NCc3cccnc3)sc2=S)cc1	-0.222
CC(=O)Nc1ccc(C(=O)/C=C/c2ccco2)cc1	-0.0867
O=C(Nc1ccccc1)N1CCC(C(=O)N2CCN(S(=O)(=O)c3cccc(F)c3)CC2)CC1	0.549
C=C(C)c1cccc(C(C)(C)NC(=O)Nc2cc(C)ccn2)c1	-0.139
CN1/C(=N\O)c2cccc3cccc1c23	-0.248
CN1CCC(=NNC(=O)C(=O)NC2CCCC2)CC1	-0.0552
Cn1c(=O)oc2cc(S(=O)(=O)N3CCC(C(=O)NCc4cccs4)CC3)ccc21	0.158
O=C(NCCC(c1ccccc1)c1ccccc1)c1cccs1	-0.775
O=C(Nc1cccnc1)C1(c2ccc(Cl)cc2)CCCC1	-0.598
CC1=N/C(=C\c2ccc(OC(C)C)cc2)C(=O)N1c1ccc(C(=O)O)cc1	-0.411
O=C(NCc1ccco1)C1OCCc2ccccc21 (configuration not stated)	0.314
Cc1cc(=O)n(CCc2ccccc2)c(O)c1C#N	1.62
N#Cc1ccc(-c2ccc(F)cc2)nc1Sc1ccccc1	-0.196
COC(=O)CON1C(=O)c2ccccc2C1=O	-0.601
CC(CCc1ccccc1)NC(=O)c1cncc(Br)c1 (configuration not stated)	-0.167
Cc1cccc(C(=O)N(C)c2nnc(-c3ccncc3)s2)c1	0.174
CCCCOc1ccc(C(=O)NN2CCN(C)CC2)cc1	-0.111
CCC(C)NC(=O)C1CCCN(C(=O)NC2CCCCC2)C1 (configuration not stated)	1.16
COC(=O)c1ccc2c(=O)n(CCN3CCOCC3)c(SCC(=O)C(C)(C)C)nc2c1	-0.157
O=C(N/N=C/c1ccc(Cl)c([N+](=O)[O-])c1)c1ccc2nc[nH]c2c1	-0.2
CCOc1ccc(N2CC(C(=O)NCCN3C(=O)S/C(=C\c4ccc(OC)c(OC)c4)C3=O)CC2=O)cc1 (configuration not stated)	-0.146
CC1CCN(C(=O)CN2C(=O)c3ccccc3S2(=O)=O)CC1	-0.102
COc1ccc(CC(=O)Nc2ccc(-c3cn4ccc(C)cc4n3)cc2)cc1	0.488
CCC(C)C(NC(=O)OC(C)(C)C)C(=O)NC(CC(C)C)C(N)=O (stereo not drawn) (Boc-Ile-Leu-NH2; configuration not given here)	0.0967

SMILES	z-score
CC1CN(CC(=O)N2CCc3[nH]c4ccccc4c3C2)CC(C)O1 (configuration not stated)	-0.0326
C=CCn1c(SCC(=O)Nc2ccccc2C)nc2sc(C)c(C)c2c1=O	0.133
COc1cc(OC)c(NC(=S)Nc2cccc(C(C)=O)c2)cc1Cl	0.241
Cc1ccc(N=Nc2c(=O)[nH]n3c(C)cc(C)nc23)cc1	-0.121
CCOC(=O)C1=NN(C(C)=O)C2(CC(=O)N(c3cc(C)cc(C)c3)C2=O)C1 (configuration not stated)	-0.292
COc1cc(CC(C#N)(CO)c2nc3ccccc3[nH]2)ccc1OC(F)F (configuration not stated)	-0.212
CCCNC(=S)Nc1ccc(Oc2ccccc2)cc1	0.463
COc1cc(C(=O)N/N=C/C2CC=CCC2)cc(OC)c1OC (configuration not stated)	-0.344
CN(C)c1ccc(C(=O)N2CC(=O)N(CCc3ccccc3)C(=O)C2)cc1	-0.365
CC(=O)Nc1ccc(S(=O)(=O)Nc2nc3c(s2)CCCC3)cc1	-0.279
Cc1noc(C)c1S(=O)(=O)N(C)CC(=O)Nc1ccc(F)cc1	-0.459
Cc1ccc(NC(=O)COC(=O)c2ccc([N+](=O)[O-])s2)c(C)c1	0.229
N#CC1=C(N)Oc2n[nH]c(-c3cccs3)c2C1c1cccnc1 (configuration not stated)	-0.306
Cc1c(Br)cc(C(=O)O)c(C)c1C	0.0555
O=C(N1CCCCC1)N1CCN(c2ccc(Cl)cc2)CC1	-0.389
CC(CCO)Nc1nc2c([nH]1)c(=O)n(C)c(=O)n2C (configuration not stated)	-0.0354
CCOc1ccc(N/C=C/C(=O)c2ccc(C)cc2)c([N+](=O)[O-])c1	0.012
CC(Oc1cc(-c2ccccc2)cc2ccccc12)C(=O)N1CCOCC1 (configuration not stated)	0.0871
CC(=O)NC1N=C(C)N(c2ccccc2)C1=O (configuration not stated)	0.375
CCc1ccccc1NC1=NCC(=O)N1Cc1ccc(OC)cc1	0.186
CCCCn1nnnc1NCc1cc(OC)c(OC)cc1OC	-0.663
CCn1c(CNC(=O)c2ccc(OC)cc2)nnc1SC	0.0397
CC(=C/c1ccco1)/C=N/NC(=O)Cc1cccn1C	-0.121
N#Cc1cc(-c2ccccc2)oc1NC(=O)c1ccccc1	-0.134

SMILES	z-score
Cc1ccc(/C=N/n2cnc3sc4c(c3c2=O)CCCC4)o1	-0.367
CCS(=O)(=O)N1CCN(C(=O)C(c2ccccc2)c2ccccc2)CC1	-0.138
O=C(c1ccc2c(c1)OCO2)N1CCN(c2ccccc2F)CC1	0.469
O=C(Nc1nc(-c2cc(Cl)sc2Cl)cs1)c1ccc(Br)s1	0.0927
Cc1cc(N2CCN(C)CC2)n2cc(-c3ccc(F)cc3)nc2n1	0.0487
COC(=O)CNC(=O)CSc1nnc(-c2ccc(OC)cc2)n1CC(C)C	-0.244
COc1ccc(C)cc1S(=O)(=O)NC1CCCCC1C (configuration not stated)	-0.438
Cc1ccc2nc(C3CCCN(C(=O)NCc4ccccc4)C3)[nH]c2c1 (configuration not stated)	-0.131
O=C(CC1SC(=Nc2ccccc2)N(Cc2ccccn2)C1=O)Nc1cccc(Cl)c1 (configuration not stated)	1.56
CCOC(=O)c1cc(CC)sc1NC(=O)c1ccc(N2C(=O)CCC2=O)cc1	-0.383
CCOc1ccc(N(C(C)C(=O)NC(C)CC)S(C)(=O)=O)cc1 (configuration not stated)	-9.49e-05
O=C(Nc1ccc(Cl)cc1Cl)C1CCC(=O)N1Cc1ccccc1Cl (configuration not stated)	0.652
CC[n+]1c(/C=C/Nc2ccccc2)sc2ccccc21	0.608
Nc1[nH]ncc1C(=O)Nc1cccc(C(F)(F)F)c1	-1.87
CCOC(=O)c1c(NC(=O)CSc2nnc(C)s2)sc2c1CCN(C)C2	-0.353
O=C(NCc1ccco1)C1CCN(c2nc3ccccc3n2Cc2ccccc2F)CC1	-0.777
O=C1CCCC2=C1C(c1ccccc1O)C1=C(CCCC1=O)O2	-0.183
O=C(Nc1ccc(F)cc1F)c1cc(-c2ccco2)on1	0.379
CCc1c(C)nc(SCC(=O)Nc2cccc(Br)c2)[nH]c1=O	-0.299
O=C(CSc1nnc(-c2ccccc2)n1Cc1ccccc1)NC1CC1	-0.206
O=C(c1cccnc1)N1CCN(Cc2ccc3c(c2)OCO3)CC1	0.11
O=C(CN1C(=O)c2cccc3cccc1c23)NCc1ccncc1	0.16
CCOC(=O)CNS(=O)(=O)c1ccc(S(=O)(=O)N2CCCC2)cc1	-0.0148
O=C(COC(=O)COc1ccc(Cl)cc1)NC1CCCCC1	-0.315
